These are yes or no findings as the source states them, for the method shown. Some entries that bind do so weakly or less than the wild type. For part of these data: Where a sequence is shown, tags or fusion partners need not be part of it. One block for each binder: values may come before it.
Columns and labels:
[1] = molecular target: N-terminally GFP-LacI-tagged CAL1 (Drosophila melanogaster) (UniProt Q9VEN2); assay: LacI/LacO tethering and recruitment assay (immunofluorescence); bait fused to GFP-LacI tethered to chromosomal LacO arrays in human U2OS cells; HA- or V5-tagged prey transiently co-expressed; IF 48 h after transfection, prey intensity at the LacO spot or % of cells; no third Drosophila centromere protein co-expressed
[2] = molecular target: T1, GFP-LacI-dCENP-C (Drosophila melanogaster), Q9VHP9; assay: as above; settings: remark: other sources report otherwise
T1 chain: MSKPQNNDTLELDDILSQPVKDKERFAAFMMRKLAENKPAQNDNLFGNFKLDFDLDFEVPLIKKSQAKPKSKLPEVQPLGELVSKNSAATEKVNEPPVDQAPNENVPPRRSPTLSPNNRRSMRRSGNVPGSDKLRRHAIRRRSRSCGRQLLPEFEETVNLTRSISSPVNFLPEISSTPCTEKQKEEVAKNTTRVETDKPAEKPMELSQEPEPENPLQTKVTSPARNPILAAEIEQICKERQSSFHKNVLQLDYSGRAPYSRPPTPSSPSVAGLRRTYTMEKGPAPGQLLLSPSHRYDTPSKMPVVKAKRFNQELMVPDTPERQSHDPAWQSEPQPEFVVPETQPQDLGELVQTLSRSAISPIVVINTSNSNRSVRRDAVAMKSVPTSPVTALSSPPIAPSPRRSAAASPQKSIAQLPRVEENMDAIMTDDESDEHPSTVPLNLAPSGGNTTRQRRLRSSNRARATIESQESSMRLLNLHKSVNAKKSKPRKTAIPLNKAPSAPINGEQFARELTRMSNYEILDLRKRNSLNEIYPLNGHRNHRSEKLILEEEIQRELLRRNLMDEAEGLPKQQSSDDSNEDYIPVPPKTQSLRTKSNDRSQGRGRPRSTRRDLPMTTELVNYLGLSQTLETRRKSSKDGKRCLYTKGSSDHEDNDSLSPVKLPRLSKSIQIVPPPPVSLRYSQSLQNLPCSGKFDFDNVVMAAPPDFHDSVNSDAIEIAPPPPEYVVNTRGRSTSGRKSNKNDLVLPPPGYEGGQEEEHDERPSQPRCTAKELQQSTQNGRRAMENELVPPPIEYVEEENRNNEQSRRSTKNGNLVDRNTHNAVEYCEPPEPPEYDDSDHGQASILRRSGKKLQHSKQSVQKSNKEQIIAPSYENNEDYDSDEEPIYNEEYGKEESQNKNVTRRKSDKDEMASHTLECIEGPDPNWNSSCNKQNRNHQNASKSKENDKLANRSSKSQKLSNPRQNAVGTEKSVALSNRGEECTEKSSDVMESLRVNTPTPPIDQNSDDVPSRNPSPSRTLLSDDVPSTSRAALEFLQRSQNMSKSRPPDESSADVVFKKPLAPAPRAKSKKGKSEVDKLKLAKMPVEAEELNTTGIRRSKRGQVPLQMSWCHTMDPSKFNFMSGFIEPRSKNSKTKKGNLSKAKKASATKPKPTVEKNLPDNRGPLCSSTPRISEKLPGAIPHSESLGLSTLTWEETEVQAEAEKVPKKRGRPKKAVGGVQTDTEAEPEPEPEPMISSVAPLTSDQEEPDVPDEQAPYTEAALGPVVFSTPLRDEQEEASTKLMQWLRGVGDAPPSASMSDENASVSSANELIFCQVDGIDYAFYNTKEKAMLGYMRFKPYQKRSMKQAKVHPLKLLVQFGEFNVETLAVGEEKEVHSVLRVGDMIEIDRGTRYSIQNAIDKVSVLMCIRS

[3] = molecular target: T2, recombinant CAL1(1-160) (Drosophila melanogaster), Q9VEN2; assay: SEC-MALS; recombinant proteins; Superdex 200 10/300 Increase GL, 50 mM HEPES pH 8.0, 150 or 300 mM NaCl, 1 mM TCEP, 22°C, 100 μl of 1-5 mg/ml; both purified; settings: remark: other sources report otherwise
T2 chain: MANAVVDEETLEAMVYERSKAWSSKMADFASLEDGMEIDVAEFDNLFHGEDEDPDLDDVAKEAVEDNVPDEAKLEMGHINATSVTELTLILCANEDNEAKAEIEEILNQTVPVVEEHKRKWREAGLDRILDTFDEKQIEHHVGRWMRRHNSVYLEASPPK

binding [1]: binds
B1: HA-dCENP-C (protein, UniProt Q9VHP9 1-1411)
chain: MSKPQNNDTLELDDILSQPVKDKERFAAFMMRKLAENKPAQNDNLFGNFKLDFDLDFEVPLIKKSQAKPKSKLPEVQPLGELVSKNSAATEKVNEPPVDQAPNENVPPRRSPTLSPNNRRSMRRSGNVPGSDKLRRHAIRRRSRSCGRQLLPEFEETVNLTRSISSPVNFLPEISSTPCTEKQKEEVAKNTTRVETDKPAEKPMELSQEPEPENPLQTKVTSPARNPILAAEIEQICKERQSSFHKNVLQLDYSGRAPYSRPPTPSSPSVAGLRRTYTMEKGPAPGQLLLSPSHRYDTPSKMPVVKAKRFNQELMVPDTPERQSHDPAWQSEPQPEFVVPETQPQDLGELVQTLSRSAISPIVVINTSNSNRSVRRDAVAMKSVPTSPVTALSSPPIAPSPRRSAAASPQKSIAQLPRVEENMDAIMTDDESDEHPSTVPLNLAPSGGNTTRQRRLRSSNRARATIESQESSMRLLNLHKSVNAKKSKPRKTAIPLNKAPSAPINGEQFARELTRMSNYEILDLRKRNSLNEIYPLNGHRNHRSEKLILEEEIQRELLRRNLMDEAEGLPKQQSSDDSNEDYIPVPPKTQSLRTKSNDRSQGRGRPRSTRRDLPMTTELVNYLGLSQTLETRRKSSKDGKRCLYTKGSSDHEDNDSLSPVKLPRLSKSIQIVPPPPVSLRYSQSLQNLPCSGKFDFDNVVMAAPPDFHDSVNSDAIEIAPPPPEYVVNTRGRSTSGRKSNKNDLVLPPPGYEGGQEEEHDERPSQPRCTAKELQQSTQNGRRAMENELVPPPIEYVEEENRNNEQSRRSTKNGNLVDRNTHNAVEYCEPPEPPEYDDSDHGQASILRRSGKKLQHSKQSVQKSNKEQIIAPSYENNEDYDSDEEPIYNEEYGKEESQNKNVTRRKSDKDEMASHTLECIEGPDPNWNSSCNKQNRNHQNASKSKENDKLANRSSKSQKLSNPRQNAVGTEKSVALSNRGEECTEKSSDVMESLRVNTPTPPIDQNSDDVPSRNPSPSRTLLSDDVPSTSRAALEFLQRSQNMSKSRPPDESSADVVFKKPLAPAPRAKSKKGKSEVDKLKLAKMPVEAEELNTTGIRRSKRGQVPLQMSWCHTMDPSKFNFMSGFIEPRSKNSKTKKGNLSKAKKASATKPKPTVEKNLPDNRGPLCSSTPRISEKLPGAIPHSESLGLSTLTWEETEVQAEAEKVPKKRGRPKKAVGGVQTDTEAEPEPEPEPMISSVAPLTSDQEEPDVPDEQAPYTEAALGPVVFSTPLRDEQEEASTKLMQWLRGVGDAPPSASMSDENASVSSANELIFCQVDGIDYAFYNTKEKAMLGYMRFKPYQKRSMKQAKVHPLKLLVQFGEFNVETLAVGEEKEVHSVLRVGDMIEIDRGTRYSIQNAIDKVSVLMCIRS

binding [2]: binds
B2: HA-dCENP-C, Q9VHP9 1-1411 (natural protein)
chain: MSKPQNNDTLELDDILSQPVKDKERFAAFMMRKLAENKPAQNDNLFGNFKLDFDLDFEVPLIKKSQAKPKSKLPEVQPLGELVSKNSAATEKVNEPPVDQAPNENVPPRRSPTLSPNNRRSMRRSGNVPGSDKLRRHAIRRRSRSCGRQLLPEFEETVNLTRSISSPVNFLPEISSTPCTEKQKEEVAKNTTRVETDKPAEKPMELSQEPEPENPLQTKVTSPARNPILAAEIEQICKERQSSFHKNVLQLDYSGRAPYSRPPTPSSPSVAGLRRTYTMEKGPAPGQLLLSPSHRYDTPSKMPVVKAKRFNQELMVPDTPERQSHDPAWQSEPQPEFVVPETQPQDLGELVQTLSRSAISPIVVINTSNSNRSVRRDAVAMKSVPTSPVTALSSPPIAPSPRRSAAASPQKSIAQLPRVEENMDAIMTDDESDEHPSTVPLNLAPSGGNTTRQRRLRSSNRARATIESQESSMRLLNLHKSVNAKKSKPRKTAIPLNKAPSAPINGEQFARELTRMSNYEILDLRKRNSLNEIYPLNGHRNHRSEKLILEEEIQRELLRRNLMDEAEGLPKQQSSDDSNEDYIPVPPKTQSLRTKSNDRSQGRGRPRSTRRDLPMTTELVNYLGLSQTLETRRKSSKDGKRCLYTKGSSDHEDNDSLSPVKLPRLSKSIQIVPPPPVSLRYSQSLQNLPCSGKFDFDNVVMAAPPDFHDSVNSDAIEIAPPPPEYVVNTRGRSTSGRKSNKNDLVLPPPGYEGGQEEEHDERPSQPRCTAKELQQSTQNGRRAMENELVPPPIEYVEEENRNNEQSRRSTKNGNLVDRNTHNAVEYCEPPEPPEYDDSDHGQASILRRSGKKLQHSKQSVQKSNKEQIIAPSYENNEDYDSDEEPIYNEEYGKEESQNKNVTRRKSDKDEMASHTLECIEGPDPNWNSSCNKQNRNHQNASKSKENDKLANRSSKSQKLSNPRQNAVGTEKSVALSNRGEECTEKSSDVMESLRVNTPTPPIDQNSDDVPSRNPSPSRTLLSDDVPSTSRAALEFLQRSQNMSKSRPPDESSADVVFKKPLAPAPRAKSKKGKSEVDKLKLAKMPVEAEELNTTGIRRSKRGQVPLQMSWCHTMDPSKFNFMSGFIEPRSKNSKTKKGNLSKAKKASATKPKPTVEKNLPDNRGPLCSSTPRISEKLPGAIPHSESLGLSTLTWEETEVQAEAEKVPKKRGRPKKAVGGVQTDTEAEPEPEPEPMISSVAPLTSDQEEPDVPDEQAPYTEAALGPVVFSTPLRDEQEEASTKLMQWLRGVGDAPPSASMSDENASVSSANELIFCQVDGIDYAFYNTKEKAMLGYMRFKPYQKRSMKQAKVHPLKLLVQFGEFNVETLAVGEEKEVHSVLRVGDMIEIDRGTRYSIQNAIDKVSVLMCIRS

binding [3]: no binding
B3: recombinant CAL1(1-160), Q9VEN2 1-160 (domain or fragment)
chain: MANAVVDEETLEAMVYERSKAWSSKMADFASLEDGMEIDVAEFDNLFHGEDEDPDLDDVAKEAVEDNVPDEAKLEMGHINATSVTELTLILCANEDNEAKAEIEEILNQTVPVVEEHKRKWREAGLDRILDTFDEKQIEHHVGRWMRRHNSVYLEASPPK

From article PMC6900781
